Measured values reported in the supplement of paper PMC10326071.
Where “and” joins values, the source holds several entries; their conditions need not be identical. Equal values may be shown once. The list shows a part of the results. Single values are uncertain, as repeats are few or missing.

How the values were obtained:
[1] = test system: SARS-CoV-2 nsp3 SARS-unique domain core (SUD-core, nsp3 residues 413-676); assay: dissociation rate constant koff (BLI); higher = faster dissociation; details: 100 µM; 25 °C
[2] = test system: SARS-CoV-2 nsp3 SARS-unique domain core (SUD-core, nsp3 residues 413-676); assay: apparent dissociation constant Kd (single-concentration BLI fit); higher = weaker binding; details: 100 µM; 25 °C

Which results are given for `COc1ccc(C(=C2C(=O)Nc3ccccc32)c2ccc(OC)cc2)cc1`?
dissociation rate constant koff [1]: 0.181 s⁻¹; apparent dissociation constant Kd [2]: 5570 µM

Which results are given for `Nc1nc(Nc2ccc3c(c2)CC[C@@H](N2CCCC2)CC3)nn1-c1cc2c(nn1)-c1ccccc1CCC2`?
dissociation rate constant koff [1]: 0.0527 s⁻¹; apparent dissociation constant Kd [2]: 15400 µM

What does the source list for `Nc1nc2c(ncn2[C@@H]2O[C@H](CO)[C@@H](O)[C@H]2O)c(=O)[nH]1`?
dissociation rate constant koff [1]: 0.0369 s⁻¹; apparent dissociation constant Kd [2]: 803 µM

Which “dissociation rate constant koff” value [1] does the source give for `Cn1cc(C2=C(c3cccc(N)c3)C(=O)NC2=O)c2ccccc21` here?
Its value is 0.404 s⁻¹.

What about the “apparent dissociation constant Kd” value [2] of the same compound?
The value was 3180 µM.

With `COc1ccc(Cl)c(Nc2nc3ccccc3nc2NS(=O)(=O)c2cccc(NC(=O)C(C)(C)N)c2)c1` as the compound, how does the “dissociation rate constant koff” value [1] read?
Its value is 0.989 s⁻¹.

And the “apparent dissociation constant Kd” value [2]?
Its value is 1970 µM.

What does the source list for `Nc1cc(Nc2ccc(S(N)(=O)=O)cc2)ncn1`?
dissociation rate constant koff [1]: 0.671 s⁻¹; apparent dissociation constant Kd [2]: 1370 µM

What does the source list for `CC(C)Nc1cc(-c2c[nH]c(C(=O)N[C@H](CO)c3cccc(Cl)c3)c2)c(Cl)cn1`?
dissociation rate constant koff [1]: 0.0445 s⁻¹ and 0.0905 s⁻¹; apparent dissociation constant Kd [2]: 44.7 µM and 93 µM

Which “dissociation rate constant koff” value [1] does the source give for `Cc1c[nH]c2nc(Nc3ccc(N4CCN(C)CC4)c(F)c3)nc(-c3cccc(CC#N)c3)c12` here?
The value was 0.236 s⁻¹.

And the “apparent dissociation constant Kd” value [2]?
Its value is 2720 µM.

`COc1cc2ncnc(Nc3ccc(O)cc3)c2cc1OC` was tested. Which “dissociation rate constant koff” value [1] did it give?
The value was 0.281 s⁻¹.

And the “apparent dissociation constant Kd” value [2]?
Its value is 242 µM.

For `COCCO[C@@H]1[C@H](O)[C@@H](CO)O[C@H]1n1ccc(N)nc1=O`, which “dissociation rate constant koff” value [1] is on record?
The value was 0.111 s⁻¹.

What about the “apparent dissociation constant Kd” value [2] of the same compound?
The value was 4770 µM.

Which “dissociation rate constant koff” value [1] does the source give for `CCc1cccc(CC)c1NC(=O)N1Cc2[nH]nc(NC(=O)c3ccc(N4CCN(C)CC4)cc3)c2C1` here?
The value was 0.0862 s⁻¹.

And the “apparent dissociation constant Kd” value [2]?
Its value is 139 µM.

For `COc1nc(N)nc2c1ncn2[C@@H]1O[C@H](CO)[C@@H](O)[C@@H]1O`, which “dissociation rate constant koff” value [1] is on record?
The value was 0.0184 s⁻¹.

What about the “apparent dissociation constant Kd” value [2] of the same compound?
The value was 10300 µM.

How did the “dissociation rate constant koff” value [1] turn out when `Nc1nccc(-c2c(-c3ccc(F)cc3)ncn2C2CCCCC2)n1` was run?
The value was 0.485 s⁻¹.

What about the “apparent dissociation constant Kd” value [2] of the same compound?
The value was 162 µM.

With `Cc1ccc(NC(=O)c2ccnc(C(F)(F)F)c2)cc1-c1cc(OCCO)nc(N2CCOCC2)c1` as the compound, how does the “dissociation rate constant koff” value [1] read?
Its value is 0.233 s⁻¹.

What about the “apparent dissociation constant Kd” value [2] of the same compound?
Its value is 2990 µM.

What does the source list for `CCn1cc(-c2ccnc3[nH]c(-c4cccc(CN(C)C)c4)cc23)c(-c2ccc(NC(=O)N(C)C)cc2)n1`?
dissociation rate constant koff [1]: 0.0557 s⁻¹; apparent dissociation constant Kd [2]: 8530 µM

With `C[C@@H]1O[C@@H](Oc2cc(O)c3c(=O)c(O[C@@H]4O[C@@H](C)[C@H](O)[C@@H](O)[C@H]4O)c(-c4ccc(O)cc4)oc3c2)[C@H](O)[C@H](O)[C@H]1O` as the compound, how does the “dissociation rate constant koff” value [1] read?
Its value is 2.13 s⁻¹.

And the “apparent dissociation constant Kd” value [2]?
The value was 1170 µM.

For `CCN1CCN(Cc2ccc(C(=O)Nc3ccc(C)c(Oc4ccc5c(c4)CC(=O)N5)c3)cc2C(F)(F)F)CC1`, which “dissociation rate constant koff” value [1] is on record?
Its value is 0.0186 s⁻¹.

And the “apparent dissociation constant Kd” value [2]?
The value was 29.8 µM.

Which results are given for `Nc1ncnc2c1ncn2[C@@H]1O[C@H](CO)[C@@H](O)[C@H]1F`?
dissociation rate constant koff [1]: 37.3 s⁻¹; apparent dissociation constant Kd [2]: 408 µM

How did the “dissociation rate constant koff” value [1] turn out when `O=C1Nc2nc(-c3c(O)cccc3OCC3CC3)cc([C@@H]3CCCNC3)c2CO1` was run?
Its value is 1.4 s⁻¹.

And the “apparent dissociation constant Kd” value [2]?
Its value is 2210 µM.

For `CCN1CCN(Cc2ccc(NC(=O)Nc3ccc(Oc4cc(NC)ncn4)cc3)cc2C(F)(F)F)CC1`, which “dissociation rate constant koff” value [1] is on record?
The value was 0.365 s⁻¹.

And the “apparent dissociation constant Kd” value [2]?
The value was 1720 µM.

Which results are given for `COc1cc2nnc(C(N)=O)c(Nc3ccc(C)cc3F)c2cc1N1CCN(CCO)CC1`?
dissociation rate constant koff [1]: 0.0885 s⁻¹; apparent dissociation constant Kd [2]: 152 µM

With `C1=C/COCc2cc(ccc2OCCN2CCCC2)Nc2nccc(n2)-c2cccc(c2)COC/1` as the compound, how does the “dissociation rate constant koff” value [1] read?
Its value is 0.598 s⁻¹.

And the “apparent dissociation constant Kd” value [2]?
Its value is 2460 µM.

Which results are given for `Nc1nc2c(ncn2[C@@H]2O[C@H](CO)[C@@H](O)[C@H]2F)c(=O)[nH]1`?
dissociation rate constant koff [1]: 0.0452 s⁻¹; apparent dissociation constant Kd [2]: 12900 µM

With `CC(C)c1c2cc(-c3ccnc(NC4CCC(NC5CCOCC5)CC4)n3)ccc2nn1C` (stereo not given) as the compound, how does the “dissociation rate constant koff” value [1] read?
Its value is 0.142 s⁻¹.

What about the “apparent dissociation constant Kd” value [2] of the same compound?
Its value is 19 µM.

Which “dissociation rate constant koff” value [1] does the source give for `O=c1[nH]c(=O)n([C@H]2C[C@H](O)[C@@H](CO)O2)cc1F` here?
Its value is 0.0495 s⁻¹.

And the “apparent dissociation constant Kd” value [2]?
The value was 1400 µM.

With `CC1(O)CC(c2nc(-c3ccc4ccc(-c5ccccc5)nc4c3)c3c(N)nccn23)C1` (stereo not given) as the compound, how does the “dissociation rate constant koff” value [1] read?
The value was 0.426 s⁻¹.

What about the “apparent dissociation constant Kd” value [2] of the same compound?
Its value is 3370 µM.

With `CNc1nc(N)nc2c1ncn2[C@@H]1O[C@H](CO[P@@](=O)(N[C@@H](C)C(=O)OC(C)C)Oc2ccccc2)[C@@H](O)[C@@]1(C)F` as the compound, how does the “dissociation rate constant koff” value [1] read?
Its value is 0.0583 s⁻¹.

And the “apparent dissociation constant Kd” value [2]?
Its value is 18700 µM.

For `O=C1NC(=O)[C@@H](c2cn3c4c(cccc24)CCC3)[C@@H]1c1c[nH]c2ccccc12`, which “dissociation rate constant koff” value [1] is on record?
The value was 0.542 s⁻¹.

What about the “apparent dissociation constant Kd” value [2] of the same compound?
The value was 2170 µM.

How did the “dissociation rate constant koff” value [1] turn out when `COc1cc2ncnc(Nc3ccc(F)c(Cl)c3)c2cc1OCCCN1CCOCC1` was run?
The value was 0.0409 s⁻¹.

And the “apparent dissociation constant Kd” value [2]?
Its value is 293 µM.

What does the source list for `Clc1ccc(C2(c3ccc(-c4cn[nH]c4)cc3)CCNCC2)cc1`?
dissociation rate constant koff [1]: 0.65 s⁻¹; apparent dissociation constant Kd [2]: 2040 µM

Which results are given for `COc1cc(OC)c(/C=C/S(=O)(=O)Cc2ccc(OC)c(O)c2)c(OC)c1`?
dissociation rate constant koff [1]: 0.259 s⁻¹; apparent dissociation constant Kd [2]: 2270 µM

Which “dissociation rate constant koff” value [1] does the source give for `CN(C)c1nc2c(ncn2[C@@H]2O[C@H](CO)[C@@H](O)[C@H]2O)c(=O)[nH]1` here?
Its value is 0.272 s⁻¹.

And the “apparent dissociation constant Kd” value [2]?
The value was 3900 µM.

With `COc1cc2ncnc(Nc3ccc(F)c(Cl)c3)c2cc1NC(=O)/C=C/CN1CCCCC1` as the compound, how does the “dissociation rate constant koff” value [1] read?
Its value is 0.265 s⁻¹.

And the “apparent dissociation constant Kd” value [2]?
Its value is 3830 µM.

`CNC(=O)c1cccc(-c2ccc3c(N4CCOC[C@@H]4C)nc(N4CCOC[C@@H]4C)nc3n2)c1` was tested. Which “dissociation rate constant koff” value [1] did it give?
The value was 0.0751 s⁻¹.

What about the “apparent dissociation constant Kd” value [2] of the same compound?
Its value is 7860 µM.

Which results are given for `CCCCCC1CC1CC1CC1CCCCCCCC(=O)OC` (stereo not given)?
dissociation rate constant koff [1]: 0.00126 s⁻¹; apparent dissociation constant Kd [2]: 957 µM
